Results from publication PMC10320511.
These are yes or no findings as the source states them, for the method shown. Binding seen in cells or lysates may run through a third protein. Some binding calls cover weakened binding; strength is not graded here. Where a sequence is shown, tags or fusion partners need not be part of it.

Amino acid sequences for entries named in this document (tags omitted).
UniProt Q01371: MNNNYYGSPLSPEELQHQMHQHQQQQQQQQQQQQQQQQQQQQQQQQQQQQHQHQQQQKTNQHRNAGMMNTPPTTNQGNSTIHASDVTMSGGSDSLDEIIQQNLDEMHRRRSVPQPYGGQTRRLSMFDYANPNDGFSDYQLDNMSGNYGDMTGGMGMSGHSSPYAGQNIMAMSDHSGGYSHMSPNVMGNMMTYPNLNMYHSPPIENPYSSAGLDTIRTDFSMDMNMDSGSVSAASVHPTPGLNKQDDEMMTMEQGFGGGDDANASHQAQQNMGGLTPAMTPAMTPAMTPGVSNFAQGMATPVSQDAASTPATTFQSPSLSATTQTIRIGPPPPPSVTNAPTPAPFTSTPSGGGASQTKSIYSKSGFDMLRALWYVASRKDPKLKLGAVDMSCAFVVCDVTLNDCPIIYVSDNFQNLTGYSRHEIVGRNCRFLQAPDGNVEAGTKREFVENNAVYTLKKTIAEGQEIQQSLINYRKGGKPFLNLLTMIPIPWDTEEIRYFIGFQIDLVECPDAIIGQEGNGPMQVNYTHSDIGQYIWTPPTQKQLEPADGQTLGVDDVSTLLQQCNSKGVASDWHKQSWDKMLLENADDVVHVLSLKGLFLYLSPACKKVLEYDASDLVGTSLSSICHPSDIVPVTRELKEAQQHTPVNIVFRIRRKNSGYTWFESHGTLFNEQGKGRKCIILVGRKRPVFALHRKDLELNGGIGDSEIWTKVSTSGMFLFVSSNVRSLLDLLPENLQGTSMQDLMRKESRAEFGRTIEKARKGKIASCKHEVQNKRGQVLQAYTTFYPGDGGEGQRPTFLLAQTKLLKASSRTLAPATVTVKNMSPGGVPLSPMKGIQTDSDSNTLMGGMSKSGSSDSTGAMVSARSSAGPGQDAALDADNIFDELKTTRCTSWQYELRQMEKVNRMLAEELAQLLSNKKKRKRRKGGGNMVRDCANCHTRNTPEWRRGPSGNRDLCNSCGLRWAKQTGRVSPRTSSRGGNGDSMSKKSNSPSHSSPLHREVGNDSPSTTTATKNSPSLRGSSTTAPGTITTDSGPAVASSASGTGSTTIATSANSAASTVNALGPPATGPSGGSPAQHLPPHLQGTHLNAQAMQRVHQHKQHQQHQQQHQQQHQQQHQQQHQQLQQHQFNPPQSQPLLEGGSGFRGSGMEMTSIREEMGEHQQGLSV

How the values were obtained:
[1] = target: T1, FRQ Δ775–800, V5H6-tagged (Neurospora crassa) (UniProt P19970); experiment: co-IP; V5H6-tagged FRQ (wild type or mutant) pulled down with V5 agarose from Neurospora lysate (cultures in the light, 25 °C); 50 mM Hepes pH 7.4, 137 mM NaCl, 10% glycerol, 0.4% NP-40; 4 °C, 2 h; Western blot with FRQ, FRH, WC-1 and WC-2 antibodies
T1 sequence: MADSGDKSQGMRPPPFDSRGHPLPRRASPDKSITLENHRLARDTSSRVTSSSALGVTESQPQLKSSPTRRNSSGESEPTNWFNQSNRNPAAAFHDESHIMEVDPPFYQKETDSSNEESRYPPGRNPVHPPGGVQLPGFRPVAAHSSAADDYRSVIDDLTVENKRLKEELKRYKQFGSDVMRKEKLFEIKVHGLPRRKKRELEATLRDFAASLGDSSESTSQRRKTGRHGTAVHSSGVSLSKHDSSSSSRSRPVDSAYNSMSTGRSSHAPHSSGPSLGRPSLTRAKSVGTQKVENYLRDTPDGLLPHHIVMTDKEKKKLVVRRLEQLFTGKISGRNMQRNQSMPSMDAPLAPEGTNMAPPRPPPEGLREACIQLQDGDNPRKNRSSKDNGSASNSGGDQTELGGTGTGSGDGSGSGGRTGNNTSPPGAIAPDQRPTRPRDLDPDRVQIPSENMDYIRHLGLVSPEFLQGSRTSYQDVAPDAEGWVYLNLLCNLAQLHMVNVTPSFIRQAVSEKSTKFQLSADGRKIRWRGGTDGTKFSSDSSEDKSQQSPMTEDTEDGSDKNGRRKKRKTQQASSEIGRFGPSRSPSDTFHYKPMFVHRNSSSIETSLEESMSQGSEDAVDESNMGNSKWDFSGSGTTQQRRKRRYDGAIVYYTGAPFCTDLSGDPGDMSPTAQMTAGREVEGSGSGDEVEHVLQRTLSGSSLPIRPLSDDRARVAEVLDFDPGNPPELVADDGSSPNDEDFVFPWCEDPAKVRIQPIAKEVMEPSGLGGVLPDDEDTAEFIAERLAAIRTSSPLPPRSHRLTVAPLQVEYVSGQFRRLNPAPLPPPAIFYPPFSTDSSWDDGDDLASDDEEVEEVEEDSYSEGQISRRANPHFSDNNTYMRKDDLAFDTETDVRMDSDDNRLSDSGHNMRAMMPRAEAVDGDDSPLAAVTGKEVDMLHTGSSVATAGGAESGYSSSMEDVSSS

[2] = target: T2, FREQUENCY (FRQ), wild type, tagged with V5H6 (Neurospora crassa) (UniProt P19970); experiment: as above
T2 sequence: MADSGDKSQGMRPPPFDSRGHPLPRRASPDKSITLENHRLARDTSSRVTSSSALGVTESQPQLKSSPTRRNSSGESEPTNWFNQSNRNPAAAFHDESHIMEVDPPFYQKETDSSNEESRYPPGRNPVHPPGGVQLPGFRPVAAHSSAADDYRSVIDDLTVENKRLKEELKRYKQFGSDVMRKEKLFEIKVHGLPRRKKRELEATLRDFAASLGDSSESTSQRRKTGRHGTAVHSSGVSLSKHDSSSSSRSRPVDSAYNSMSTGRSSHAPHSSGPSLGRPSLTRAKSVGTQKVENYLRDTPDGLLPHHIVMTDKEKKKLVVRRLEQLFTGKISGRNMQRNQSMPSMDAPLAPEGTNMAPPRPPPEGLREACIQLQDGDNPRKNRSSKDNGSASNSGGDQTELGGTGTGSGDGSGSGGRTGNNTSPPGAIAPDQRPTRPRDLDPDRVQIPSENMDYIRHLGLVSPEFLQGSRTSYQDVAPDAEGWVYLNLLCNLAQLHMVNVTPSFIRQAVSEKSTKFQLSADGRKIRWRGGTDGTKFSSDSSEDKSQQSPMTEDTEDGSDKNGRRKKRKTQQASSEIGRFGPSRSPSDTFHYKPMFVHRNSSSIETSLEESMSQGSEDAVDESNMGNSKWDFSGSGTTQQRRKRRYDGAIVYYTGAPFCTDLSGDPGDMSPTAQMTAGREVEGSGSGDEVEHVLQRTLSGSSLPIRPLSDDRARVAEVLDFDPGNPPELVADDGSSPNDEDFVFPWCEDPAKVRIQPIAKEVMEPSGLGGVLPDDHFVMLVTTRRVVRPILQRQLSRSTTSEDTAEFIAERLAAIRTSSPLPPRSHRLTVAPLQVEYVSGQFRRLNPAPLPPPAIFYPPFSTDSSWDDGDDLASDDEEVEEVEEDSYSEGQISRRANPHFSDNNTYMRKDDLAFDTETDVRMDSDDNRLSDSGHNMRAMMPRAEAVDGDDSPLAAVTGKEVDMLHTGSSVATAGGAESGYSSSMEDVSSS

With “White Collar-1 (WC-1) (from UniProt Q01371 1-1167)” the binding [1] was “no binding” and the binding [2] was “binds”.
